The other results are listed elsewhere or left out. The list includes weakly bound sequences.
What follows are sequences tested against MaxL homodimer (UniProt P61244) (assay: universal protein-binding microarray (PBM)). Details: PBS-based mixture, 10 nM His-tagged protein dimer, 2% milk, 200 ng/uL BSA, 50 ng/uL salmon testes DNA, 0.02% TX-100; detection with Alexa 488 anti-His …; high values mean tight binding; most listed sequences are background and not binding sites; double strand, one strand shown.
UniProt P61244, sequence (P61244 whole entry): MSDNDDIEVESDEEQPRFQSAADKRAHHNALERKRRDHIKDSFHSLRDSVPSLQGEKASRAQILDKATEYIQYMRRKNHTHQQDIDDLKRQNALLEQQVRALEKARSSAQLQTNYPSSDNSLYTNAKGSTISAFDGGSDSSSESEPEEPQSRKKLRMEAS

Row | Sequence | binding signal (normalized occupancy)
1 | AGACGGAC | 0.0693
2 | CTCCGGTA | 0.0742
3 | CCTAGTTA | 0.0692
4 | AAGGCCTA | 0.0709
5 | CCCCACTA | 0.0843
6 | CCCAGAGG | 0.0704
7 | CATACCAG | 0.0756
8 | CCCTGCAA | 0.0774
9 | ACTACACA | 0.0891
10 | CTTGGCAC | 0.0753
11 | ATAAGCAC | 0.0818
12 | CAATCGCC | 0.0761
13 | GCTACCGA | 0.0693
14 | AATTGGAA | 0.0749
15 | CGTCTGAA | 0.0727
16 | GGACGCAA | 0.0745
17 | AAGTGCTC | 0.072
18 | GCTTGGAA | 0.0702
19 | ATTGTCAC | 0.0832
20 | CTTGGTGA | 0.074
21 | AAATTCAG | 0.0699
22 | ATCTGCAT | 0.0878
23 | AGGATGCC | 0.078
24 | TAAGGTCA | 0.0838
25 | ATCCTCAA | 0.0756

Row | Sequence | binding signal (normalized occupancy)
26 | ACGGCTTG | 0.0691
27 | CTGCGATA | 0.071
28 | AGTTGCTG | 0.0707
29 | GCTCGGTA | 0.0731
30 | AATCTGGT | 0.0735
31 | GGCGGCGA | 0.071
32 | TGGCCTAA | 0.0782
33 | ACATGATC | 0.101
34 | ATACCTCC | 0.0869
35 | GACGCTGA | 0.0692
36 | CTCAAAAG | 0.0757
37 | AAGATCAA | 0.075
38 | CTCGCGGC | 0.0764
39 | AATCGCGT | 0.0845
40 | CGCGACTA | 0.071
41 | ACTCGAAG | 0.0695
42 | CTTGTGTA | 0.0811
43 | GCCATAGC | 0.0735
44 | AAACAGTA | 0.0764
45 | AGTATTGA | 0.0782
46 | AGCCCAAG | 0.072
47 | GAAAGGGC | 0.068
48 | TAGAGGGA | 0.0769
49 | AGAGAATC | 0.0732
50 | TTGATAAA | 0.0794

Row | Sequence | binding signal (normalized occupancy)
51 | ACATGAAC | 0.0866
52 | GAGTTGTA | 0.0751
53 | GATACCAC | 0.0803
54 | CATACATA | 0.0846
55 | ATGATGCA | 0.0844
56 | ACTGATCC | 0.0713
57 | AACCTACG | 0.0753
58 | GTTAAGCA | 0.0767
59 | ACCGTGAC | 0.0781
60 | AACGGCCA | 0.0706
61 | ATACTTAC | 0.0835
62 | TCAAGTCA | 0.0804
63 | CGTAGTGA | 0.0792
64 | AATGCGAC | 0.0782
65 | CTCGGACA | 0.0765
66 | AGGCAGGG | 0.0722
67 | AGGGTGTC | 0.0762
68 | CCTTAATA | 0.074
69 | ACTTACAA | 0.0743
70 | AATTAGAA | 0.0776
71 | AACGACTT | 0.0709
72 | ATCGGAAG | 0.0744
73 | TATGATGA | 0.0814
74 | CTTCTTCC | 0.0714
75 | GTTTTAGA | 0.072

Row | Sequence | binding signal (normalized occupancy)
76 | CACCGAGG | 0.0722
77 | CCGTGCAG | 0.0778
78 | ACAAACGG | 0.0723
79 | ATAGTGGA | 0.0774
80 | TCCGAAAA | 0.0774
81 | ACGGTAAG | 0.0742
82 | AAATCACC | 0.081
83 | CTTCCCGA | 0.0703
84 | GTTCTGCA | 0.0806
85 | CCGATACG | 0.075
86 | AGAAAGTC | 0.0723
87 | CCGAATTC | 0.0698
88 | AGCTCCTC | 0.0721
89 | CCTTCTTC | 0.0732
90 | AAGTCTAG | 0.0703
91 | AAGTAGTC | 0.0719
92 | AGAGTCCT | 0.0696
93 | GATCATCC | 0.0784
94 | GGCCCCAC | 0.0779
95 | AGGAAACT | 0.0669
96 | TATGGTCA | 0.0805
97 | GCTAGTAC | 0.0709
98 | TAGTGTAA | 0.0707
99 | AAGTGGGT | 0.0752
100 | ATCTGGAA | 0.074

Row | Sequence | binding signal (normalized occupancy)
101 | ATGGATGC | 0.082
102 | GGCAGCCC | 0.0701
103 | CTCTAGAC | 0.0718
104 | CCACGCCC | 0.0948
105 | CCCCTTTA | 0.0738
106 | AAGTCTAA | 0.0755
107 | CACGCGTC | 0.119
108 | ACAAAGCA | 0.069
109 | CCTGATAA | 0.0778
110 | CAGATCAC | 0.0735
111 | CCTATTCC | 0.0779
112 | CGGTTACC | 0.0722
113 | AAAATATA | 0.0799
114 | CACAAGGC | 0.0814
115 | GTTCCTCA | 0.0726
116 | CAGATTAG | 0.0772
117 | CGGACCTC | 0.0706
118 | CAGCCTAG | 0.0649
119 | CATTGCAA | 0.0755
120 | ATGGTATA | 0.0853
121 | ACCTATAA | 0.0797
122 | CTGGAAAC | 0.0752
123 | CCTGGGGA | 0.0698
124 | CCCTTCGA | 0.073
125 | CATGGCCA | 0.0803

Row | Sequence | binding signal (normalized occupancy)
126 | ACGCCTAG | 0.0726
127 | CTTGAGTC | 0.0726
128 | AAATGGAG | 0.0774
129 | CCCATCCA | 0.0805
130 | ATCCTAAG | 0.0734
131 | AAAGACAG | 0.0731
132 | AGACGTTC | 0.0744
133 | ATGGTCGA | 0.0786
134 | GGCCATGA | 0.0847
135 | CACTTATG | 0.0845
136 | CAGGATCG | 0.0765
137 | CGAATTAC | 0.0717
138 | GCTTACTA | 0.072
139 | CTTGTCGC | 0.0664
140 | GTCATTGA | 0.0813
141 | ACCAAAGA | 0.0752
142 | CGGGCGGA | 0.0678
143 | ATGCCTTC | 0.0784
144 | TACGAACA | 0.0754
145 | CCACCATC | 0.0768
146 | ATGATGCG | 0.0869
147 | CCCTGGAA | 0.0745
148 | GTAAAGAC | 0.0723
149 | AGGACACG | 0.0852
150 | GCGTGCCA | 0.09

Row | Sequence | binding signal (normalized occupancy)
151 | AACTCTGC | 0.0676
152 | GGTGTTAA | 0.077
153 | AGAGTGTA | 0.0771
154 | ACCCGGCC | 0.0668
155 | ACGATTAA | 0.0772
156 | CCCCCGCA | 0.0822
157 | ACGAGTGC | 0.0801
158 | CAGGGGAG | 0.0786
159 | CCGCGCAG | 0.0685
160 | AATAGTAT | 0.0751
161 | ACGGATCT | 0.0718
162 | ACTTTTCG | 0.0723
163 | CCTAGCCC | 0.075
164 | CGAATTCA | 0.0686
165 | AGCCACCA | 0.0809
166 | CCTGGAGC | 0.0701
167 | ATCACTTG | 0.0778
168 | CCCACCTA | 0.0786
169 | TGTAGTAA | 0.0863
170 | GTTTGCGA | 0.0718
171 | AGCTTTCG | 0.0672
172 | TAGGAGAA | 0.0739

Source: publication PMC4242493
